According to PubChem BioAssay (NCATS):
Where “and” joins values, the source holds several entries; their conditions need not be identical. Identical values can stand only once. The shares of active, inactive and inconclusive entries below differ from those in the screen. For part of these data: Potencies of inconclusive entries are doubtful fits and often do not repeat. Calls of active or inactive are those of the source. Calls come from the whole dose curve; as a rule, active = well fitted curve in the direction sought with a large enough effect; inconclusive = small, poorly fitted or top-dose-only effect, or another doubt; inactive = no such curve, though single readings can be large; an effect the other way counts as inactive or inconclusive.

Tests used:
[1] = tested on: CRL-7250; test: Cytotoxic Profiling of Annotated Libraries Using Quantitative High-Throughput Screening (AID 1296008); conditions: Five cell lines viability, CellTiter-Glo ATP luminescence, 48-72 h; max response: stronger effect = lower value; note: nearly all actives have a fitted effect of over 60% in size; for max response: % is set by controls: 0 for no effect and ±100 for the full control effect
Procedure, shortened: (§1)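 Compounds were pin-transferred onto cells and incubated 48 or 72 hr at 37 degree Celsius, 95% humidity. CellTiter-Glo was added, plates sat 10 min at room temperature, then ATP-coupled luminescence was imaged as the viability read-out.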

[2] = tested on: HaCat; test: as above; conditions: Five cell lines viability, CellTiter-Glo ATP luminescence, 48-72 h; max response: stronger effect = lower value
Procedure, shortened: as §1

[3] = tested on: MCC-13; test: qHTS assay to identify novel small-molecules to repurpose for Merkel cell carcinoma treatment (AID 1296009); conditions: MCC and control cell lines, CellTiter-Glo viability, 72 h; series mostly up to 46 µM; note: nearly all actives have a fitted effect of over 60% in size; for activity change, negative = cytotoxicity: % is set by controls: 0 for no effect and ±100 for the full control effect
Procedure, shortened: (§2)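 qHTS format: cells treated with library compounds in DMSO across 8 (NPC) or 11 (MIPE) concentrations. Readout after 72 hr at 37 degree celsius was CellTiter-Glo luminescence.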

[4] = tested on: MCC-26; test: as above; conditions: MCC and control cell lines, CellTiter-Glo viability, 72 h; series mostly up to 46 µM
Procedure, shortened: as §2

[5] = tested on: MKL-1; test: as above; conditions: MCC and control cell lines, CellTiter-Glo viability, 72 h; series mostly up to 46 µM
Procedure, shortened: as §2

[6] = tested on: MKL-2; test: as above; conditions: MCC and control cell lines, CellTiter-Glo viability, 72 h; series mostly up to 46 µM
Procedure, shortened: as §2

[7] = tested on: WaGa; test: as above; conditions: MCC and control cell lines, CellTiter-Glo viability, 72 h; series mostly up to 46 µM
Procedure, shortened: as §2

[8] = tested on: C33A; test: Primary qHTS to identify gynecologic anti-cancer compounds using libraries of approved drugs and bioactive compounds (AID 1345084); conditions: Gynecologic cancer cell panel viability, ATPlite luminescence, 48 h; series mostly up to 57.5 µM; note: nearly all actives have a fitted effect of over 55% in size
Procedure, shortened: (§3)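 Cells, 1,000 per well, plated 16 h, then exposed 48 h at 37 C to compounds. Viability by ATPlite luminescence after 15 min at room temperature.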

[9] = tested on: CAOV3; test: as above; conditions: Gynecologic cancer cell panel viability, ATPlite luminescence, 48 h; series mostly up to 57.5 µM
Procedure, shortened: as §3

[10] = tested on: CASKI; test: as above; conditions: Gynecologic cancer cell panel viability, ATPlite luminescence, 48 h; activity change, negative = cytotoxicity: at 57.5 µM (top of the series)
Procedure, shortened: as §3

[11] = tested on: Es-2; test: as above; conditions: Gynecologic cancer cell panel viability, ATPlite luminescence, 48 h; series mostly up to 57.5 µM
Procedure, shortened: as §3

[12] = tested on: UISO; test: qHTS assay to identify novel small-molecules to repurpose for Merkel cell carcinoma treatment (AID 1296009); conditions: MCC and control cell lines, CellTiter-Glo viability, 72 h; series mostly up to 46 µM; note: nearly all actives have a fitted effect of over 60% in size; for activity change, negative = cytotoxicity: % is set by controls: 0 for no effect and ±100 for the full control effect
Procedure, shortened: as §2

[13] = tested on: HeLa; test: Primary qHTS to identify gynecologic anti-cancer compounds using libraries of approved drugs and bioactive compounds (AID 1345084); conditions: Gynecologic cancer cell panel viability, ATPlite luminescence, 48 h; series mostly up to 57.5 µM; note: nearly all actives have a fitted effect of over 55% in size
Procedure, shortened: as §3

[14] = tested on: NIH3T3; test: Cytotoxic Profiling of Annotated Libraries Using Quantitative High-Throughput Screening (AID 1296008); conditions: Five cell lines viability, CellTiter-Glo ATP luminescence, 48-72 h; max response: stronger effect = lower value; note: nearly all actives have a fitted effect of over 60% in size; for max response: % is set by controls: 0 for no effect and ±100 for the full control effect
Procedure, shortened: as §1

[15] = tested on: KB-3-1; test: as above; conditions: Five cell lines viability, CellTiter-Glo ATP luminescence, 48-72 h; max response: stronger effect = lower value
Procedure, shortened: as §1

[16] = tested on: astro; test: Drug repurposing screens with cells derived from glioblastoma tumor samples (AID 1345199); conditions: viability, ATP luminescence, 48 h; activity, negative = cell killing: at 45.9 µM (top of the series); note: nearly all actives have a fitted effect of over 40% in size
Procedure, shortened: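 Four patient lines of CD133+ GBM neurospheres were screened at several concentrations; hits were retested in those lines plus three slower-growing GBM lines, using 48-hour treatment and ATP-based viability.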

[17] = qHTS assay to identify inhibitors of the type 1 interferon - major histocompatibility complex class I in skeletal muscle: Counter screen cell viability and HiBit confirmation (AID 1347412); conditions: iHSKM muscle cells + IFN-b, HiBiT or CellTiter-Glo, 24 h; Viability; note: nearly all actives have a fitted effect of over 60% in size
Procedure, shortened: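 Luminescence read-out: Nano-Glo HiBiT lytic signal from C-terminally HiBiT-tagged HLA-B in CRISPR-edited human myoblasts, plus CellTiter Glo ATP as viability counter screen. IFN-beta 4.0 ng/ml; 24 hrs treatment at 37 C, 5% CO2.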
Potency is the fitted concentration of half-maximal effect; tags give direction and shape of the fitted curve.

With `CCCCCCCCNC(C)C(O)c1ccc(SC(C)C)cc1` (stereo unspecified) the Potency [1] was inconclusive: 23.7 µM [inhibitor, single point], the Potency [2] was inconclusive: 33.5 µM [inhibitor, single point] and the Potency [3] was inconclusive: 26.6 µM [inhibitor, single point]. For the same molecule, the Potency [4] was inconclusive: 29.9 µM [inhibitor, single point], the Potency [5] was inconclusive: 26.6 µM [inhibitor, single point] and the Potency [6] was active: 18.8 µM. The Potency [7] was inconclusive: 29.9 µM [inhibitor, single point], the Potency [8] was inconclusive: 39.8 µM [cytotoxic, single point] and the Potency [9] was inconclusive: 39.8 µM [cytotoxic, single point]. The Potency [10] was inconclusive: 39.8 µM [cytotoxic, single point] and the Potency [11] was inconclusive: 25.1 µM [cytotoxic, single point].
With `COc1cc(Nc2ncc(F)c(Nc3ccc4c(n3)N(COP(=O)(O)O)C(=O)C(C)(C)O4)n2)cc(OC)c1OC` the Potency [1] was active: 1.48 µM and active: 3.66 µM, the Potency [2] was active: 4.69 µM and active: 4.61 µM and the Potency [4] was inconclusive: 1.87 µM [inhibitor, full curve, poor fit]. For the same molecule, the Potency [12] was “inactive”, the Potency [8] was inconclusive: 22.4 µM [cytotoxic, partial curve, poor fit] and the Potency [9] was active: 11.2 µM. The Potency [10] was active: 17.8 µM, the Potency [11] was inconclusive: 17.8 µM [cytotoxic, partial curve, poor fit] and the Potency [13] was active: 3.55 µM.
In the case of `C[C@H](NC(=O)C(C#N)=Cc1cccc(Br)n1)c1ccccc1`, the Potency [1] is reported as active: 5.26 µM, the Potency [2] is reported as active: 10.5 µM and the Potency [14] is reported as active: 9.35 µM. For the same molecule, the Potency [6] was inconclusive: 33.2 µM [inhibitor, single point], the Potency [12] was inconclusive: 37.2 µM [inhibitor, single point] and the Potency [7] was “inactive”.
With `COc1cccc2c1C(=O)c1c(O)c3c(c(O)c1C2=O)C[C@@](O)(C(C)=O)C[C@@H]3O[C@H]1C[C@H](N)[C@H](O)[C@H](C)O1` the Potency [1] was active: 0.075 µM, the Potency [15] was inconclusive: 5.8 µM [inhibitor, full curve, poor fit] and the Potency [14] was active: 0.133 µM. The Potency [3] was active: 1.06 µM, the Potency [4] was active: 0.944 µM and the Potency [6] was active: 0.0106 µM. For the same molecule, the Potency [12] was active: 0.211 µM, the Potency [7] was active: 0.0237 µM and the Potency [16] was active: 1.12 µM. The Potency [17] was inconclusive: 27.9 µM [cytotoxic, partial curve, poor fit], the Potency [8] was active: 0.631 µM and the Potency [9] was inconclusive: 0.282 µM [cytotoxic, full curve, poor fit]. The Potency [10] was active: 0.708 µM, the Potency [11] was active: 0.708 µM and the Potency [13] was active: 4.47 µM.
For `CCCCCCCCCCCCCCCC[N+](C)(C)CC`, the Potency [1] was active: 6.68 µM, the Potency [15] was inconclusive: 29.1 µM [inhibitor, single point] and the Potency [14] was inconclusive: 29.9 µM [inhibitor, single point]. The Potency [3] was inconclusive: 26.6 µM [inhibitor, single point], the Potency [4] was inconclusive: 13.3 µM [inhibitor, partial curve] and the Potency [5] was active: 0.119 µM. The Potency [6] was active: 0.0473 µM, the Potency [12] was active: 0.668 µM and the Potency [7] was active: 0.119 µM. For the same molecule, the Potency [16] was active: 5.62 µM, the Potency [8] was inconclusive: 8.91 µM [cytotoxic, partial curve, poor fit] and the Potency [9] was inconclusive: 2.51 µM [cytotoxic, partial curve, poor fit]. The Potency [10] was active: 8.91 µM, the Potency [11] was active: 28.2 µM and the Potency [13] was active: 28.2 µM.
With `CCOC(=O)[C@H](CCc1ccccc1)N[C@@H](C)C(=O)N1CCCC1C(=O)O` (stereo partly specified) the max response [1] was inactive: 3.69% and the outcome [14] was “inactive”.
For `C#Cc1cccc(Nc2ncnc3cc(OC)c(OCCCCCCC(=O)NO)cc23)c1`, the Potency [1] was inconclusive: 18.4 µM [inhibitor, partial curve, poor fit], the Potency [14] was active: 13.2 µM and inconclusive: 29.1 µM [inhibitor, single point] and the Potency [3] was active: 16.6 µM. For the same molecule, the Potency [7] was active: 0.105 µM, the Potency [8] was active: 3.55 µM and the Potency [9] was active: 7.94 µM. The Potency [10] was active: 6.31 µM and the Potency [13] was active: 6.31 µM.
